From the supplement of paper PMC3334620
Whole data set: some 33,000 sequences, median “E-score (-0.5 to 0.5)” near -0.017, cut for the highest 2% near 0.3. This is one part of the list.

Target: T1, Sut1 (UniProt P53032)
T1 sequence: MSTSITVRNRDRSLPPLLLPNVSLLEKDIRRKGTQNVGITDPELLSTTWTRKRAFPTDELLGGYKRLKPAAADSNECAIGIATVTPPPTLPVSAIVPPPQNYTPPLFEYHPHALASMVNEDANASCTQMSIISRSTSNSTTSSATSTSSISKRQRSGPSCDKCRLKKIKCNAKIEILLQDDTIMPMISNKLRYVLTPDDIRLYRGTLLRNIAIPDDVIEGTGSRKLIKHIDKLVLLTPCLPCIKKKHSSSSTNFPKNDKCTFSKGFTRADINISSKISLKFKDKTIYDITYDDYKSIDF
Experiment: PBM E-score (8-mer binding enrichment) (E-score (-0.5 to 0.5)); higher = stronger / more preferred TF binding; most listed sequences are background and not binding sites
Settings: protein concentration: 200 nM; construct: GST-full length
Procedure, shortened: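 Full-length yeast transcription factors or their DNA-binding domains, GST-tagged and expressed with PURExpress, were applied at about 100-200 nM to universal all-10-mer Agilent arrays. These arrays had been made double-stranded by primer extension on fresh or once-stripped slides. Detection used fluorescent anti-GST, normalisation used masliner, and E-scores for ungapped eight-base words pooled with reverse complements came from the Universal PBM Analysis Suite.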

Sequence | PBM E-score
CAGAGCGC | -0.345
AGATCCAT | 0.0569
AAAATCGT | 0.0813
CACGTCAA | -0.12
AATTGGTC | 0.132
AGATCTAT | -0.0198
ATATCCAT | 0.193
AGCGTGAC | -0.108
CAGGAACC | -0.273
CTCTTCCC | -0.289
AGGAGGAA | -0.0769
AACGATCG | 0.111
ATACTGGG | -0.138
AACTAGTC | 0.0497
ACCCAAGT | -0.12
ACGCCATG | -0.149
AAGCTTGG | 0.0601
AACCACCT | 0.094
CGCTGGTA | -0.126
GCCAGGCA | 0.0413
GTATGATA | 0.27
CACCCTTA | -0.171
ACGTCAAA | 0.0835
AACAACGC | 0.0643
CGGTCCAG | -0.194

Sequence | PBM E-score
ATATATGA | 0.176
AATATTAA | 0.263
AGCCTAAT | 0.0842
GACGTACC | -0.157
CTTTCGTA | 0.0877
ACGCTAGG | -0.123
ATTAAAGG | 0.194
AGCTCTTG | -0.248
ACGAACCG | -0.204
CCCTTACC | -0.17
ACGGCGGC | -0.168
AGTGCTGA | -0.2
CGGGTACC | -0.237
ATCCGTCC | -0.0115
GAAACTTC | 0.0956
ATTTCCAC | 0.126
CGCGGAAG | 0.11
GCATTGCC | -0.209
GGAACGTA | -0.105
AATAACTC | 0.186
AATAGTTC | 0.0739
ACCGGTGC | -0.0607
AAGTATCG | -0.0195
CCCAGCCC | -0.283
CCGCTAAA | -0.0372

Sequence | PBM E-score
GGATCCAA | 0.1
CATGATGA | 0.0597
TACGCGAA | -0.0866
CGATCATC | -0.0321
TTGCACAA | -0.00301
AGGCTAGG | -0.312
AAGGCGGT | -0.142
AGCATGTG | -0.231
AATCCAGT | 0.0499
CAACAGGC | -0.243
TATTTCAA | 0.301
CCTTAGGA | -0.0422
AAGGGGGA | -0.0309
AGGTCTTG | -0.153
CGGAGGAA | 0.0168
TGGCAACA | -0.067
ATTGTATA | 0.311
TACCGTCA | -0.146
AAAGTTGC | -0.118
TAGCTCAA | -0.0138
AGGGGTCC | -0.273
ACCGTTTG | 0.0491
CGCCCAGA | -0.185
TGAGCGCA | -0.0031
AGGGCCCC | -0.346

Sequence | PBM E-score
CCTGGCGA | -0.213
TCCAATAA | 0.17
AACGTACT | 0.122
GGTGTTGA | 0.0232
AAGCCCAG | 0.0601
ATAGCCTG | -0.139
AAGGCAAT | 0.099
GACTGCAA | -0.14
ACACATCC | -0.103
ACATAGAC | 0.0215
CGCCCCGC | -0.158
CAACCACA | 0.131
AAAGGATT | -0.084
CTGACAAA | 0.0355
ATACTGGA | 0.122
AGCACCGA | 0.143
AAAGTGCT | 0.0514
AAAAGGCA | 0.114
GCACTCAA | -0.128
ACCCCGGA | 0.426
TGTACACA | 0.0959
CCTGATTC | -0.00501
ATTAAGAC | 0.123
CGCATAAA | 0.0533
ATATCACG | 0.137

Sequence | PBM E-score
AAGAATCA | 0.207
CATTAACG | 0.0861
GGTTGAAC | 0.00313
ACCTGGGC | -0.339
ATCCGCTA | -0.057
CATTCAGA | -0.0722
ACACATGT | -0.0165
GCGTGTCC | -0.124
ATACCGTG | -0.209
CAATCCCG | 0.0138
GAAGCACA | 0.113
GCACGTGA | -0.228
AACTTAAC | 0.216
ACTACTTG | -0.038
ATTTCTAC | 0.0813
CCCCGGGG | 0.198
AGGGTATG | -0.0994
ATGGACAA | -0.0528
AGGCAGGC | -0.208
AACTGTGG | -0.148
CGGAAAAA | 0.273
ATTATCGC | 0.238
CCAATTCC | 0.0724
ATACTCAT | 0.132
GAGAGGAA | 0.0275

Sequence | PBM E-score
CGCGTCAG | -0.242
AGAAAGGA | -0.0461
ATTTAACA | 0.213
ACCAGAAC | 0.00879
AATCAAAT | 0.216
TGAGATCA | -0.067
AAGACGAC | 0.0308
AGCCAACC | 0.119
CTTCTTCC | -0.0268
ACCGGGGA | -0.14
ACGTTTGG | -0.149
ACACTGCA | -0.15
CTAAAGCA | 0.156
AAGGCATC | -0.118
GTGTAAAC | 0.0373
ATCAGGTG | -0.16
ATGTATCG | 0.0776
CTAGAGTC | -0.107
CGAGTGCG | 0.0653
AGAGACTC | -0.00502
GTATCCTA | -0.0361
GACATAAA | 0.195
GTCCTGTA | 0.135
AGGACATA | -0.0903
CACAGACG | -0.12

Sequence | PBM E-score
CACCTCGG | 0.128
TACATGAA | 0.279
GGAACTCC | 0.356
ACTGGACT | -0.107
AGTAGCTC | -0.123
ATATGCCG | -0.0897
GTAAATAA | 0.243
TAGTTTCA | 0.194
GACAGTCA | -0.121
ACGGTACG | 0.0279
TACTTGCA | 0.118
GCCCGTCC | -0.202
ACTTCTAA | 0.208
GTGGCATA | -0.212
AGGTTCTG | -0.218
AGTCGAAA | 0.115
CCTACATA | -0.0743
GGGTCTGA | -0.172
AGCGATTG | -0.0825
ACTGAGAG | -0.145
GAGAAGAA | 0.183
TGCCAGAA | -0.112
